The campaign covered roughly 48,000 compounds. About 120 (0.25%) were called active. Inconclusive results (about 4%) are left out. Calls come from the whole dose curve; as a rule, active = well fitted activation curve with a large enough effect; inconclusive = small, poorly fitted or top-dose-only effect, or another doubt; inactive = no such curve, though single readings can be large or run the other way. Some of the results follow.
Experiment: Primary qHTS for Identification of Small Molecule Activators of Huntingtin-Antisense Promoter Activity; note: nearly all actives have a fitted effect of over 55% in size
Conditions: HEK293 HTT-AS promoter firefly luciferase reporter, 24 h; series mostly up to 57.5 µM; activity change, positive = activation: at the top concentration
How it was run: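 Quantitative HTS used concentration series of up to 57.5 uM final on HEK293 luciferase reporter cells, 24 h at 37 degrees C. Readout was Dual-Glo firefly luminescence.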

Activity change, positive = activation, inactive:
Cc1cccn2c(=O)cc(COc3cccc(NC(=O)COc4ccc(F)cc4)c3)nc12 4.03%, CCc1nnc(NC(=O)C(=O)c2cc(C)n(-c3ccccc3)c2C)s1 -50.4%, CC(C)N(Cc1ccccc1)C(=O)Cn1ncc2c([nH]c3ccccc32)c1=O -19.9%, COc1ccc(NC(=O)C(Cc2ccccc2)n2cccc2)cc1OC (configuration not stated) -23.8%, COc1cc(-c2noc(CCC(=O)Nc3cc(C)ccc3C)n2)cc(OC)c1OC -55.3%, Cc1ccccc1Cn1c2ccccc2c2cnn(CC(=O)NCCc3ccccc3)c(=O)c21 -17.5%, COc1ccc(NC(=O)CCS(=O)(=O)c2ccc3nc(C)sc3c2)cc1Cl -10.5%, Cc1ccc(-n2ncc(C(=O)NCCc3c[nH]c4ccccc34)c2C2CCN(C(=O)OC(C)(C)C)CC2)cc1C -45.6%, Cc1ccccc1C(=O)N(Cc1nc(-c2ccc(Cl)cc2)no1)C(C)C -29.2%, CCn1c(=O)c2sccc2n2c(CCC(=O)N3CCN(c4ccc(C(C)=O)cc4)CC3)nnc12 -18.7%, CNC(=O)c1c(NC(=O)/C=C/c2ccccc2Cl)sc2c1CCC2 -12.6%, O=C(Cn1c(-c2cccs2)cc2cc(Cl)ccc21)N1CCN(c2ccccc2F)CC1 -19.3%, CC(NC(=O)CN(c1ccc(Cl)cc1Cl)S(=O)(=O)c1ccccc1)c1ccccc1 (configuration not stated) -10.3%, COc1ccc(C(=O)c2oc3ccccc3c2NC(=O)COc2cccc(C)c2C)cc1 2.82%, CCC(=O)Nc1ccc(CC)cc1-c1nc2ccccc2n(Cc2ccccc2)c1=O -31.9%, CCCN(CCC)CCCNC(=O)Cn1ncc2c3ccccc3n(Cc3ccccc3)c2c1=O 1.64%, Cc1ccc(NC(=O)Cc2csc(C)n2)c(C)c1 3.13%, Cc1ccc(C(=O)Nc2ccc(OCc3cc(=O)n4c(C)csc4n3)cc2)cc1 -0.342%, Cc1cccc(NC(=O)CSc2nncn2C)c1 -5.52%, Cc1ccc(Nc2c(-c3ccc(O)cc3)nc3cccc(C)n23)cc1 -16.4%, Cc1nc(-c2ccc(Cl)cc2)sc1CCNC(=O)c1cccs1 -6.19%, CCN(CC)CCN(C(=O)c1ccco1)c1nc2ccc(Br)cc2s1 0.0373%, CCCOc1ccc(-c2nc(SC)[nH]c(=O)c2C#N)cc1OC -27.6%, CC(=O)Nc1nonc1-c1nnc(SCC(=O)Nc2cc(C)cc(C)c2)n1-c1ccccc1 -28.6%, Cc1ccc(S(=O)(=O)c2c(Nc3cc(F)ccc3F)sc(C(=O)c3ccc(F)cc3)c2N)cc1 -40.8%, Cc1cc(C)cc(NC(=O)C2CCCN(C(=O)c3cnn(-c4ccccc4)c3-n3cccc3)C2)c1 (configuration not stated) -37.2%, O=C(CSc1nc2c([nH]c3ccccc32)c(=O)n1-c1ccc(Cl)cc1)N1CCOCC1 -9.23%, CCC1CCCCN1CC(=O)Nc1cc(C)c2c(=O)oc3ccccc3c2n1 (configuration not stated) 7.76%, Cc1ccc(-c2nonc2NC(=O)c2ccc(F)cc2)cc1C -18%, O=S(=O)(NCC(c1ccco1)N1CCOCC1)c1cc(F)ccc1F (configuration not stated) -16.6%, Cc1cccc(NC(=O)CSc2c(C)cnc3c2c(=O)n(C)c(=O)n3C)c1C -5.84%, CCc1nn(C(CC)C(=O)NCc2ccc(F)cc2)c(=O)c2cc3occc3n12 (configuration not stated) -15.4%, O=C(CCc1ccccc1)N(Cc1cccnc1)c1nc2c(F)cccc2s1 -28.7%, COc1cc(C(=O)NCC(c2ccco2)S(=O)(=O)c2ccccc2)cc(OC)c1OC (configuration not stated) -12.6%, NCCCC(N)CC(=O)NCC1NC(=O)C(CO)NC(=O)C(N)CNC(=O)C(C2CCN=C(N)N2)NC(=O)C(=CNC(N)=O)NC1=O (configuration not stated) -1% [at 0.74 µM, percent change from vehicle, -100% = no light], CCCOc1ccc(C(=O)N(Cc2ccc(N(C)C)cc2)CC2CCCO2)cc1 (configuration not stated) -16.7%, CC1=C(C(=O)Nc2ccccc2)C(CC(C)C)n2nc(SCc3ccccc3C)nc2N1 (configuration not stated) 3.57%, O=C(c1cc2c(s1)-c1ccccc1OC2)N1CCN(c2ccccc2)CC1 -4.51%, Cc1ccc(-c2cc(C(=O)Oc3ccccc3)c3cc(C)ccc3n2)cc1 13.7%, COc1ccc2c(c1)c1c(c(=O)n(-c3cccc(Cl)c3)c(=O)n1CC(=O)N1CCCC1)n2C -3.29%, COc1ccc2nc(NC(=O)c3nc(S(=O)(=O)Cc4cccc(C)c4)ncc3Cl)sc2c1 -77.9%, CCC1CCCCN1CCCNC(=O)CN1C(=O)CSc2ccc(S(=O)(=O)N3CCOCC3)cc21 (configuration not stated) -7.07%, Cc1cc(NC(=O)C2CCN(S(=O)(=O)c3ccc4[nH]c(=O)oc4c3)CC2)ccc1Br -56.7%, Clc1ccccc1CN1CCc2sccc2C1, CCOC(=O)Cn1nc(C)c(NC(=O)COc2ccc(Cl)cc2C)c1C -37%, CCOc1ccccc1NC(=O)Cn1ccn(Cc2ccc(C)cc2)c(=O)c1=O -14.8%, CCC(C)NC(=O)CSc1nc2c(sc3ccccc32)c(=O)n1Cc1ccccc1Cl (configuration not stated) -1.65%, Cc1ccc(C)c(CSc2nc3ccncc3n2CC(=O)Nc2ccc(N(C)C)cc2)c1 -16.7%, Cc1cccc2nc(-c3cccc(NS(=O)(=O)c4ccccc4)c3)cn12 -15.5%, Cc1cc(C)c(NC(=O)Nc2ccc3snnc3c2)c(C)c1 -34.1%, Clc1ccccc1CNc1ncnc2c1c(-c1ccccc1)cn2-c1ccccc1 -19.6%, Cc1ccc(C)c(Cn2c3ccccc3c3cnn(CC(=O)NCc4ccccc4)c(=O)c32)c1 -5.58%, COCCCNC(=O)CSc1nc2c(sc3ccccc32)c(=O)n1CCCC(=O)NCCOC -8.34%, Fc1ccccc1Cn1c(-c2ccccc2)nc2ccccc21 -24.3%, CC(=O)c1ccc(NC(=O)COCc2cc(-c3ccco3)on2)cc1 -3.12%, COc1cccc(N2CC(NC(=O)c3cccc(OC)c3OC)CC2=O)c1 (configuration not stated) -12.2%, Cc1ccccc1OCc1nnc(SCc2cc(=O)c3cccc(F)c3[nH]2)n1C -27.3%, COc1ccccc1NC(=O)c1sc2nc3c(cc2c1N)CCCCCC3 -23.1%, O=C(c1ccccc1)N1c2ncnn2C2(CCCCC2)[C@@H]2CCCC[C@@H]21 -30.1%, Cc1ccc2c(c1)C(c1ccc(F)cc1)N(C(=O)c1ccc(OC(C)C)cc1)CC(=O)N2 (configuration not stated) -20.1%, Cc1ccccc1C(=O)Nc1cc(-c2ccc(Cl)cc2)nn1-c1ccccc1 18.5%, Cc1nn(-c2ccc(N3CCOCC3)nn2)c(C)c1CCC(=O)NCc1ccc(F)cc1 2.83%

From PubChem BioAssay AID1508624 (National Center for Advancing Translational Sciences (NCATS), 2021)
